# Substrate: O=C(O)[C@@H]1CCCCN1
# Assay: purified protein, by the assay type
# Conditions: other: substrate: L-pipecolic acid, 20 mmol/L 2-oxoglutaric acid, 30° C.
protein,measurement,value
"Penicillium chrysogenum Wisconsin 54-1255 L-pipecolic acid trans-4-hydroxylase PcPH, SEQ ID NO: 14 (Penicillium rubens Wisconsin 54-1255) (protein) MSQALDLSLLKGSPEERDEVSAALLDTLKTRGVAKLKNHGLPEDLIAEMFDYTRRFFSLSLEDKMTAKHPPEANPNRGYSYVGQESVSSISGYEKGLPQGKTIRDIKETLDMGSPHDSLVDNIWVAEEKLPGFRKFMEDFYESCFKVELEILDALAQALEISAPDLRLLHNKAENEFRLLHYPAVPASALEDGTATRIAEHTDFGTITMLFQDSTGGLQVEDQTNLGTFHDVVSGGKSEIILNIGDSLQRLTNDTFMAACHRVTYPPTVKVGSDVVIPERYSVAYFAKPNRIASLFPLKKFITPATPCKYEDITAWDYNNLRIAKLFS",Km,3.67 mM
same,Vmax,16.16 U/mg-protein
